Hit rate of the full screen: of about 52,000 compounds, about 1,700 (3.3%) were called active. Cut-off read from the data, not from the text of the source: active = survival mostly below about 52% (no sharp cut-off); inactive = mostly above about 56%. This is one part of the list.
Each molecule was assayed on Wild type (assay: growth inhibition of S. aureus wild type versus tarO mutant, primary screen, teichoic acid synthesis inhibitors, RN4220, OD600 (AID 463173)). Details: S. aureus RN4220 wild type/DeltatarO growth, OD600, 18 h, stronger effect = lower value, screened at 18.75 µg/mL (by protocol).
With `CCOc1ccc(C2CC(=O)c3c([nH]c(C(=O)OC4CCCCCC4)c3C)C2)cc1` (stereo not given) the survival was inactive: 79%. For `COc1cc(OC)c(C(=O)NC2CC(C)(C)NC(C)(C)C2)cc1OC`, the survival was inactive: 109%. With `CCOCCc1nn2c(=O)cc(COC(=O)c3ccc4c(c3)OCO4)nc2s1` the survival was inactive: 133%. For `CN(C(=O)CN1CCC(NC(=O)c2ccccc2Br)CC1)C1CCCCC1`, the survival was inactive: 119%. For `Cc1nn(C)c2c1c(C(F)(F)F)cc(=O)n2C(C)C(=O)NCc1ccccc1` (stereo not given), the survival was inactive: 105%. In the case of `COc1ccc(-c2nc(CS(=O)CC(=O)NCc3ccccc3Cl)c(C)o2)cc1OC` (stereo not given), the survival was inactive: 76%. `Cn1c(C(=O)Nc2cccc(Cl)c2)cc2c(=O)n(C)c3ccccc3c21` was tested, and the survival was inactive: 85%. `O=S(=O)(c1ccc(Br)cc1)N1CCn2cccc2C1c1ccc(Br)cc1` (stereo not given) was tested, and the survival was inactive: 65%. For `Cc1ccc(CNc2nc3nc(C)c(Cl)c(C)n3n2)cc1`, the survival was inactive: 99%. In the case of `Cc1cccc(NC(c2nnc(-c3ccccc3)o2)c2ccc(F)cc2Cl)c1C` (stereo not given), the survival was inactive: 55%. `Cc1oc2c(c(C)cc3oc(=O)c(CC(=O)NCCc4ccc(Cl)cc4)c(C)c32)c1C` was tested, and the survival was inactive: 84%. For `Cc1ccc(Cl)cc1N1CCN(C(=O)C2CCN(S(=O)(=O)c3c(C)noc3/C=C/c3ccccc3F)CC2)CC1`, the survival was inactive: 71%. `Cc1ccc(-c2cn3c(n2)sc2cc(C(=O)NC4CCCCCC4)ccc23)c(C)c1` was tested, and the survival was inactive: 79%. `COc1cccc(-c2cn3c(n2)sc2cc(C(=O)NCCc4ccccc4)ccc23)c1` was tested, and the survival was inactive: 37%. `Cc1ccc(C)c(N2CCN(CCCNC(=O)c3ccc4nc(C(C)C)oc4c3)CC2)c1` was tested, and the survival was inactive: 73%. With `N#CCSc1nnc(-c2ccccc2)n1-c1ccccc1` the survival was inactive: 114%. `CC(C)c1nn2c(=O)cc(COC(=O)COc3ccccc3F)nc2s1` was tested, and the survival was inactive: 85%. With `CCc1ccccc1NC(=O)CSc1nc2ccccc2nc1Cc1cccc(OC)c1` the survival was inactive: 75%. For `O=C(NCc1ccccc1)c1ccc2c(c1)sc1nc(-c3ccc(F)cc3)cn12`, the survival was inactive: 100%. With `CCOC(=O)c1ccc(CN(Cc2ccc(Cl)cc2Cl)S(=O)(=O)c2cccc(Cl)c2)cc1` the survival was inactive: 73%. With `Cc1cc(-c2ccc(C)c(S(=O)(=O)N(C(C)C)C3CCCCC3)c2)on1` the survival was inactive: 79%. With `CC1(C)O[C@H]2[C@@H](O1)[C@@H](C(=O)Nc1cc(F)ccc1F)O[C@@H]1OC(C)(C)O[C@@H]12` the survival was inactive: 110%. With `COc1ccc(CN(C2CCCC2)S(=O)(=O)c2ccc(-n3cnnn3)cc2)cc1` the survival was inactive: 134%. `O=C(O)CCSc1nnc(-c2ccc(Cl)cc2Cl)o1` was tested, and the survival was inactive: 65%. For `Nc1ccc(S(=O)(=O)N2CCSC2C(=O)O)cc1` (stereo not given), the survival was inactive: 101%. With `Cc1cccc(-c2cc(C(=O)O)c3c(-c4ccc(F)cc4)[nH]nc3n2)c1` the survival was inactive: 81%. In the case of `Cc1ccc2nc(N(Cc3cccnc3)C(=O)CCc3ccccc3)sc2c1`, the survival was inactive: 67%. In the case of `CC1(C(=O)O)COC(c2ccc(Cl)cc2)OC1` (stereo not given), the survival was inactive: 107%. In the case of `CC(C)C1NC(=O)c2c(sc3c2CCCC3)N1` (stereo not given), the survival was inactive: 92%. In the case of `COc1ccc(-c2nc3n(n2)C(c2cccc(C)c2)C(C(N)=O)=C(C)N3)cc1OC` (stereo not given), the survival was inactive: 73%. With `CC(=O)c1ccc(NC(=O)c2nn(C)c3c2CS(=O)(=O)c2ccccc2-3)cc1` the survival was inactive: 97%. `CCOC(=O)C1=C(CN2CCCCC2)NC(=O)NC1c1ccc(OC)cc1` (stereo not given) was tested, and the survival was inactive: 72%. For `CC1(C)Cc2ccccc2C(N/N=C/c2ccco2)=N1`, the survival was inactive: 113%. In the case of `Cc1cccc(NC(=O)c2ccc(F)c(S(=O)(=O)N3CCN(c4ccc(F)cc4)CC3)c2)c1`, the survival was active: -3%. In the case of `O=C1c2ccccc2C(=O)N1CN(Cc1ccccc1)CN1C(=O)c2ccccc2C1=O`, the survival was inactive: 101%. `Cc1ccc(-c2cn3c(n2)sc2cc(C(=O)NC4CCCCC4)ccc23)cc1` was tested, and the survival was inactive: 96%. With `COc1ccc(CCNC(=O)CCn2c(=O)c3cccn3c3ccc(F)cc32)cc1OC` the survival was inactive: 64%. `CCOc1ccccc1NC(=O)c1cn(C2CCCCC2)c(=O)c2c1c1ccccc1n2C` was tested, and the survival was inactive: 94%. In the case of `NS(=O)(=O)c1ccc(CCNC(=O)CCn2c(=O)c3cccn3c3cccnc32)cc1`, the survival was inactive: 92%. In the case of `COc1ccccc1N1CCN(CC(N)=O)CC1`, the survival was inactive: 100%. In the case of `Cc1ccc(-n2ncc(C(=O)N(C)Cc3ccccc3)c2-n2cccc2)cc1`, the survival was inactive: 73%. `Cc1cc(F)ccc1NC(=O)CN1C(=O)CCc2cc(S(=O)(=O)N3CCOCC3)ccc21` was tested, and the survival was inactive: 88%. `CC(CNC(=O)c1cc2ccccn2n1)c1ccccc1` (stereo not given) was tested, and the survival was inactive: 80%. For `COc1ccc(Cl)cc1NC(=O)c1cc2nc(-c3ccc(C)cc3)cc(C(F)(F)F)n2n1`, the survival was inactive: 65%. In the case of `Cc1cc(Br)ccc1NC(=O)C(NS(=O)(=O)c1cccs1)c1ccccc1` (stereo not given), the survival was inactive: 63%. With `N#Cc1ccc(S(=O)(=O)N2CCNCC2)cc1` the survival was inactive: 114%. In the case of `CCOC(=O)C(C)Nc1ncnc2onc(C)c12` (stereo not given), the survival was inactive: 72%. `COc1cc(NC(=O)CCCN2C(=O)CCn3nc(-c4cn(C)c5ccccc45)cc32)cc(OC)c1` was tested, and the survival was inactive: 134%. In the case of `CSc1nc(C)cc(Nc2cccc(C(=O)O)c2)n1`, the survival was inactive: 87%. In the case of `COc1cccc(C(=O)Nc2ccc3nc(SCC(=O)N4CCc5ccccc54)sc3c2)c1`, the survival was inactive: 85%. `Cc1sc2c(c1C)c(=O)n(-c1ccc(Cl)cc1)c(=O)n2CC(=O)c1ccccc1` was tested, and the survival was inactive: 76%. For `Cc1c(NC(=O)c2ccc(-c3ccc(F)cc3)o2)cccc1-c1nc2ncccc2o1`, the survival was inactive: 82%. `CCC(=O)Nc1ccc2nc(C3CC3)n(Cc3ccc(Cl)cc3)c(=O)c2c1` was tested, and the survival was inactive: 121%. For `O=C(c1cnc(N2CCCCC2)c2ccccc12)N1CCN(c2ccc(F)cc2)CC1`, the survival was inactive: 85%. `Fc1ccc(Nc2nc(-c3ccc(F)cc3)c3c(n2)-c2ccccc2OC3)cc1` was tested, and the survival was inactive: 79%. `CCOc1ccccc1CNC(=O)c1cc2oc3ccccc3c2n1CC` was tested, and the survival was active: 2%. With `O=c1[nH]c2ccc(S(=O)(=O)Nc3cc(Cl)ccc3O)cc2o1` the survival was inactive: 82%. For `COc1cccc(CNC(=O)c2ccc3c(c2)sc2nc(-c4ccccc4)cn23)c1OC`, the survival was inactive: 69%. With `Cc1ccc(-c2nc3scc(CCNS(=O)(=O)c4c(C)noc4C)n3n2)cc1` the survival was inactive: 128%. With `Cc1cc(C)cc(NC(=O)c2cc3c(=O)n(Cc4ccco4)ccc3nc2C)c1` the survival was inactive: 45%. In the case of `CCC(=O)N1CCc2cc(Br)cc(S(=O)(=O)N3CCN(c4cccc(Cl)c4)CC3)c21`, the survival was inactive: 68%. `O=C(OCC1CCCO1)c1ccc2c(c1)N(Cc1cccc(F)c1)C(=O)c1ccccc1S2(=O)=O` (stereo not given) was tested, and the survival was inactive: 67%. With `Cc1nc2c(-c3ccc(F)cc3)c(C)nn2c(C)c1CCC(=O)NCc1cccc(Cl)c1` the survival was inactive: 84%. For `CCOc1ccc(CNC23CN4CN(CN(C4)C2)C3)cc1`, the survival was inactive: 99%. In the case of `CCN(CC)S(=O)(=O)c1ccc(N(C(=O)Cn2nnc3ccccc32)C(C(=O)NC2CCCC2)c2ccco2)cc1` (stereo not given), the survival was inactive: 112%. For `CC1CCc2nc(NC(=O)Cc3ccc(Cl)cc3)sc2C1` (stereo not given), the survival was inactive: 65%. `CCOc1cccc(C2c3[nH]c4ccccc4c3CCN2C(=O)Cc2cccc(OCC)c2OCC)c1` (stereo not given) was tested, and the survival was inactive: 88%. In the case of `Cc1cc2c(cc1S(=O)(=O)CCC(=O)N(C)Cc1ccccc1)OCC(=O)N2`, the survival was inactive: 84%. For `CSc1cccc(NC(=O)N2CCN(S(=O)(=O)c3ccc4c(ccn4C)c3)CC2)c1`, the survival was inactive: 49%. For `O=S(=O)(c1ccc(Nc2ccc(-c3ccccc3)nn2)cc1)N1CCCC1`, the survival was inactive: 104%. `COc1ccc2c(CNCCc3ccccc3OC)c(C(=O)O)n(Cc3ccc(F)cc3Cl)c2c1` was tested, and the survival was inactive: 95%. For `Cc1cc(C)cc(NC(=O)CN(c2cccc(C)c2C)S(=O)(=O)c2ccccc2)c1`, the survival was inactive: 80%. `O=C(CSc1nc(-c2ccccc2)no1)N1CCN(c2ccc(F)cc2)CC1` was tested, and the survival was inactive: 91%. `COc1ccc(C2=NS(=O)(=O)N(C)C(C(=O)NC(C)c3ccccc3)=C2)cc1OC` (stereo not given) was tested, and the survival was inactive: 88%. With `CC1=C(C(=O)OC2CCCC2)C(c2ccc(Cl)cc2)CC(=O)N1` (stereo not given) the survival was inactive: 80%. `O=C(c1ccccc1)N1CCN(S(=O)(=O)N2CCOCC2)CC1` was tested, and the survival was inactive: 122%. `COc1cccc(N2C(=O)CSC23C(=O)N(Cc2ccccc2F)c2ccccc23)c1` (stereo not given) was tested, and the survival was inactive: 76%. In the case of `COc1ccc(-c2nc(SCCOc3cc(C)ccc3C(C)C)n3[nH]c(=O)cc3n2)cc1`, the survival was inactive: 65%. `Cc1cccc(NC(=O)C2CCN(S(=O)(=O)c3c(C)noc3/C=C/c3ccco3)CC2)c1C` was tested, and the survival was inactive: 85%. In the case of `O=C(O)CSc1nc2ccc(Cl)cc2[nH]1`, the survival was inactive: 110%. With `CCOc1cc(Cl)c(S(=O)(=O)n2cc(C)nc2CC)cc1Cl` the survival was active: -7%. `O=C(NCC(c1ccco1)S(=O)(=O)c1cccs1)c1ccc(C(F)(F)F)cc1` (stereo not given) was tested, and the survival was inactive: 83%. For `COc1cccc(NC(=O)Nc2cc(-c3cn4cccnc4n3)ccc2OC)c1`, the survival was inactive: 76%. `CCn1cc2nc(SCc3ccccc3)n(Cc3ccc(C)cc3)c(=O)c2n1` was tested, and the survival was inactive: 92%. `CN(C)c1ccc(CNS(=O)(=O)c2csc(C(N)=O)c2)cc1` was tested, and the survival was inactive: 90%. In the case of `Cc1ccccc1NC(=O)CSc1nc2ccc(NC(=O)c3ccco3)cc2s1`, the survival was inactive: 56%. With `COC(=O)C1(CO)NC(c2ccc(Cl)cc2)C2C(=O)N(C)C(=O)C21` (stereo not given) the survival was inactive: 108%. `Clc1ccc(-c2noc3ncnc(N4CCCCC4)c23)cc1` was tested, and the survival was inactive: 81%. `COc1ccc(C)cc1NC(=O)c1cc(S(=O)(=O)NCCC2=CCCCC2)ccc1F` was tested, and the survival was inactive: 79%. For `COc1ccc(-c2noc(CSc3nnc(C)n3-c3ccc(C)cc3)n2)cc1`, the survival was inactive: 84%.

Source: PubChem BioAssay AID463173 (ICCB-Longwood Screening Facility, Harvard Medical School, 2010)
